Test results reported in PubChem BioAssay (NCATS).
The shares of active, inactive and inconclusive entries below differ from those in the screen. Potencies beside an inconclusive call are fits to weak or partial responses and may not hold up. Active and inactive are the calls of the source. Unless noted, the call rests on the fitted dose curve; in most records, active means well fitted inhibition curve with a large enough effect; inconclusive means small, poorly fitted or top-dose-only effect; inactive means flat fitted curve, though single readings scatter.

The compounds below were run against 3',5'-cyclic-AMP phosphodiesterase 4B (Homo sapiens) (UniProt Q07343) (assay: qHTS Assay for Inhibitors of PDE-IV (AID 607; active means well fitted activation curve with a large enough effect in the main read-out, with a control signal flat, not every such curve was filed as active; inconclusive means small, poorly fitted or top-dose-only effect, or effect the other way, or a change in a side signal)). Conditions: HEK293 ACTOne CNG channel cells, membrane potential fluorescence; activation (PDE inhibition): at 22.9 µM (top of the series).
Procedure, shortened: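 HEK293 ACTOne cells with CNG channel (1000/well), endogenous PDE4; membrane potential dye, compounds up to 22.9 uM final. Fluorescence Ex 535/Em 590; RO 20-1724 (100 uM final) as reference.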
Potency means the concentration at half of the fitted maximal effect; tags describe the fitted curve by direction and shape.

UniProt Q07343, sequence (Q07343 whole entry, looked up): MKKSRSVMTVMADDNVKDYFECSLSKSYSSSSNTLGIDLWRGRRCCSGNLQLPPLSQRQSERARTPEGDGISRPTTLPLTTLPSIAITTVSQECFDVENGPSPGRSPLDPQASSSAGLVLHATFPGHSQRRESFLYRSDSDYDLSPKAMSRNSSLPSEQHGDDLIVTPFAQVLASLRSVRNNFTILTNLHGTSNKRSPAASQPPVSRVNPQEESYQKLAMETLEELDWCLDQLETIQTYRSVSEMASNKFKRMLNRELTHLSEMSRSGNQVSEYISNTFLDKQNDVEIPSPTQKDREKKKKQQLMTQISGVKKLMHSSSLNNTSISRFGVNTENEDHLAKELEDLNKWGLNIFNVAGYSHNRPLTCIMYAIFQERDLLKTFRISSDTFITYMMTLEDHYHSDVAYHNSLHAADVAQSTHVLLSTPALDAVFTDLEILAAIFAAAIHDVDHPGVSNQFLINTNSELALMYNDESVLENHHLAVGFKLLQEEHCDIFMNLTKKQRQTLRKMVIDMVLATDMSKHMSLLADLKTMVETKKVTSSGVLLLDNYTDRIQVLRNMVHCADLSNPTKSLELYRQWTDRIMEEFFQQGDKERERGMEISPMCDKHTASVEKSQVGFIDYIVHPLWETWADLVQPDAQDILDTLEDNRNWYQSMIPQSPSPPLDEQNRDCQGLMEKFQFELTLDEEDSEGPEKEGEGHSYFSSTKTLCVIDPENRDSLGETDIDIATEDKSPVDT

| SMILES | Potency |
| --- | --- |
| Cc1cccc(CNc2nc(-c3ccc4c(c3)OCO4)nc3ccccc23)c1 | inconclusive: 6.31 µM [activator, partial curve] |
| CC[C@H](C)C(=O)O[C@H]1CCC=C2C=C[C@H](C)[C@H](CC[C@@H]3C[C@H](O)CC(=O)O3)[C@H]21 | inconclusive: 9.51 µM [activator, partial curve] |
| FC(F)(F)c1ccccc1-c1nc(N2CCOCC2)c2ccccc2n1 | inconclusive: 10 µM [activator, partial curve] |

These compounds were tested against Ubiquitin carboxyl-terminal hydrolase 1 (Homo sapiens) (UniProt O94782) (assay: Inhibitors of USP1/UAF1: Pilot qHTS (AID 504865;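 further: rhodamine fluorescence freed from ubiquitin-rhodamine substrate followed over time; nearly all actives have a fitted effect of over 35% in size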; on activity change, negative = inhibition: top concentration of the series differs between compounds; on the % scale 0 is the no-effect control and ±100 the full control effect)). Conditions: purified USP1/UAF1, Ub-rhodamine cleavage fluorescence; series mostly up to 54.9 µM; activity change, negative = inhibition: at the top concentration.
Procedure, shortened: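 Deubiquitinase activity followed as kinetic rhodamine fluorescence release from 150 nM Ub-Rho. 1 nM USP1/UAF1 with compound, after 15 min room-temperature preincubation, in HEPES pH 7.8 buffer containing TCEP, EDTA, BSA and Tween-20.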

UniProt O94782, sequence (O94782 whole entry, looked up): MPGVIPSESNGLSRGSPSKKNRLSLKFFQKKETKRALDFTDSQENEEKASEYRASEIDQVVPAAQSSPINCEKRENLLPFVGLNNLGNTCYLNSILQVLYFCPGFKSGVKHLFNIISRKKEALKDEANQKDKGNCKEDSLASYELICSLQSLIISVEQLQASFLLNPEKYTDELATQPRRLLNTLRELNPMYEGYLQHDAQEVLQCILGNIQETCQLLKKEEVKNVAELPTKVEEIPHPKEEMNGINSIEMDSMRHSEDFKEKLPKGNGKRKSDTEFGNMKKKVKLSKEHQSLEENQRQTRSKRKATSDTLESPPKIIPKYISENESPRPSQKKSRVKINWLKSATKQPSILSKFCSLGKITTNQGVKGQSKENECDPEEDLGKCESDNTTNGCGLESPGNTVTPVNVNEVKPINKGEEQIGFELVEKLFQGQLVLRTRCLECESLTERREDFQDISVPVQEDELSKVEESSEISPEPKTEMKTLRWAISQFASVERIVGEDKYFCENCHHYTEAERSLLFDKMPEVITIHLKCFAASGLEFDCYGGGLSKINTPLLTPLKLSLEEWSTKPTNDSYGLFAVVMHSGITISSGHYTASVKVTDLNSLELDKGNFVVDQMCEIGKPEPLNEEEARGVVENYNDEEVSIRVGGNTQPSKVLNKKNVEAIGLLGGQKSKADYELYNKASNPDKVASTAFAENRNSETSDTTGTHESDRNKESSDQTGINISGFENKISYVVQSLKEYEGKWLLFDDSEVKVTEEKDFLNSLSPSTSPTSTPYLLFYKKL

| SMILES | activity change, negative = inhibition | Potency |
| --- | --- | --- |
| Cc1cccc(CNc2nc(-c3ccc4c(c3)OCO4)nc3ccccc23)c1 | inactive: -24.1% | – |
| COC(=O)c1c(OC)cc2c(c1C)Oc1c(Cl)c(OC(C)=O)c(Cl)c(C)c1C(=O)O2 | – | inconclusive: 39.8 µM [inhibitor, full curve, poor fit] |
| CC[C@H](C)C(=O)O[C@H]1CCC=C2C=C[C@H](C)[C@H](CC[C@@H]3C[C@H](O)CC(=O)O3)[C@H]21 | – | inconclusive: 44.7 µM [inhibitor, partial curve] |
| COc1cc(C)c2c(=O)cc(-c3ccccc3)oc2c1 | – | inconclusive: 56.2 µM [inhibitor, partial curve] |
| C=CCc1ccc(OC(=O)c2ccccc2)c(OC)c1 | – | inconclusive: 39.8 µM [inhibitor, partial curve] |
| CC1(C)C(O)CC[C@]2(C)C1CC[C@@]1(C)C2C(=O)C=C2[C@@H]3C[C@@](C)(C(=O)O)CC[C@@]3(C)CCC21C (stereo not given in full) | – | inconclusive: 79.4 µM [inhibitor, partial curve, poor fit] |
| FC(F)(F)c1ccccc1-c1nc(N2CCOCC2)c2ccccc2n1 | – | active: 31.6 µM |
